Laboratory results taken from the supplement of paper PMC12217912.
The other results are listed elsewhere or left out. Sequences were assembled here from the parent chain. Values near 0.05 are background.

B1: TEV protease; numbered along this chain (parent)
chain: MGESLFKGPRDYNPISSSICHLTNESDGHTTSLYGIGFGPFIITNKHLFRRNNGTLVVQSLHGVFKVKDTTTLQQHLVDGRDMIIIRMPKDFPPFPQKLKFREPQREERICLVTTNFQTKSMSSMVSDTSCTFPSGDGIFWKHWIQTKDGQCGSPLVSTRDGFIVGIHSASNFTNTNNYFTSVPKNFMELLTNQEAQQWVSGWRLNADSVLWGGHKVFMVKPEEPFQPVKEATQL

Variants of: B1
Test: raw area under fraction-flipped curve 0-4 h after induction (AUC4h, not background-subtracted), DNA-recorder readout of cleavage of the substrate (dimensionless); higher = more cleavage of the substrate by the protease variant
Details: temperature: 34 °C; time window: 0-4 h after rhamnose induction
Method: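 In vivo DNA recorder in E. coli TOP10(DE3) ΔrhaA at 34 °C. Each TEVp single-site mutant (parent TEVp 0) is paired with a single-site variant of the 7-mer TEVs (canonical ENLYFQ|S). The substrate sits between flexible linkers in a Bxb1-sfGFP-TEVs-SsrA fusion, so cleavage stabilises Bxb1 and speeds flipping of a recombination array, read by NGS. The value is the raw area under the fraction-flipped curve over 0-4 h after rhamnose induction (AUC4h), with ≥20 reads per time point. It is not background-subtracted; inactive controls average about 0.047.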
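Further: Bxb1 expression induced with 0.2% (w/v) L-rhamnose at OD600 near 0.5, cultures sampled hourly, flipped fraction per protease–substrate barcode pair counted by paired-end Illumina sequencing.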

| Variant | area with substrate ENLYFQA | area with substrate ENLYFQC | area with substrate ENLYFQD | area with substrate ENLYFQE | area with substrate ENLYFQG | area with substrate ENLYFQH | area with substrate ENLYFQI | area with substrate ENLYFQK | area with substrate ENLYFQM | area with substrate ENLYFQN | area with substrate ENLYFQQ | area with substrate ENLYFQS | area with substrate ENLYFQT | area with substrate ENLYFQV | area with substrate ENLYFQY | area with substrate ENLYFQF | area with substrate ENLYFQL | area with substrate ENLYFQR | area with substrate ENLYFQP | area with substrate ENLYFQW |
| --- | --- | --- | --- | --- | --- | --- | --- | --- | --- | --- | --- | --- | --- | --- | --- | --- | --- | --- | --- | --- |
| P222N | 0.1 | 0.112 | 0.0695 | 0.058 | 0.1 | 0.107 | 0.0619 | 0.0667 | 0.0643 | 0.0771 | 0.0713 | 0.101 | 0.0685 | 0.0803 | 0.0765 | – | – | – | – | – |
| T233C | 0.097 | 0.0838 | – | – | 0.0881 | 0.067 | – | – | 0.0746 | – | – | 0.0932 | 0.0721 | – | 0.0998 | 0.069 | 0.0667 | 0.0577 | – | – |
| W199I | 0.0567 | – | – | – | 0.0419 | – | – | 0.0712 | – | – | – | 0.0656 | 0.0472 | – | – | – | – | – | 0.0809 | 0.0579 |
| W199V | 0.0663 | 0.0556 | – | – | 0.0606 | – | 0.0657 | 0.0614 | 0.0561 | 0.0669 | – | 0.0652 | 0.0605 | – | – | – | 0.068 | 0.043 | – | 0.0609 |
| E3I | – | 0.138 | 0.0622 | – | 0.119 | 0.0799 | 0.0529 | 0.0595 | 0.106 | – | – | 0.121 | – | – | – | – | 0.0622 | 0.0575 | 0.0643 | 0.0873 |
| N206E | 0.0938 | 0.137 | – | – | 0.0973 | 0.0868 | 0.0597 | 0.0641 | – | 0.0857 | – | 0.124 | – | – | – | – | 0.0647 | 0.0549 | 0.0721 | – |
| D208G | 0.0798 | 0.0732 | 0.0558 | – | – | 0.0558 | – | 0.0595 | – | – | 0.138 | 0.0805 | 0.0549 | – | – | – | – | 0.053 | – | – |
| R50Q | – | 0.148 | 0.0825 | – | 0.124 | 0.097 | 0.0777 | 0.0811 | 0.0978 | – | – | 0.117 | 0.0732 | – | 0.0603 | 0.0771 | 0.0643 | 0.0502 | 0.0595 | 0.0827 |
| V229P | 0.117 | 0.113 | 0.0782 | – | 0.107 | 0.0944 | 0.0528 | 0.0568 | 0.0957 | 0.0816 | 0.0769 | 0.117 | 0.0422 | 0.0619 | 0.0778 | – | 0.0751 | 0.0617 | 0.0604 | 0.0518 |
| I42M | – | 0.105 | 0.0472 | – | 0.15 | 0.0722 | 0.0522 | 0.0723 | 0.0832 | 0.0805 | – | 0.097 | 0.0626 | 0.0605 | 0.08 | 0.0684 | 0.0871 | – | – | – |
| I42E | – | 0.0745 | 0.0467 | – | 0.0476 | 0.0414 | 0.0438 | 0.0638 | 0.064 | 0.0214 | 0.0559 | 0.0407 | 0.0418 | – | 0.0377 | 0.044 | 0.0388 | 0.0392 | 0.0244 | 0.044 |
| R51G | – | 0.112 | – | – | 0.0992 | – | – | – | 0.0872 | 0.0947 | 0.0875 | 0.113 | – | 0.0616 | – | 0.0882 | 0.0626 | 0.0646 | – | 0.0758 |
| H215M | 0.0767 | – | 0.0762 | – | 0.0855 | 0.0653 | 0.0657 | – | 0.062 | – | – | 0.0839 | 0.0719 | 0.0571 | 0.0555 | – | 0.0434 | 0.0559 | – | 0.0571 |
| T30V | – | 0.101 | 0.0676 | – | – | 0.0973 | 0.0747 | – | 0.145 | – | – | 0.113 | – | 0.0633 | – | – | 0.0608 | 0.0628 | – | 0.0793 |
| G202E | 0.07 | 0.0873 | 0.0282 | – | 0.0556 | – | 0.0554 | 0.0579 | 0.0687 | 0.0549 | – | 0.0673 | – | 0.0519 | 0.0662 | – | 0.0475 | 0.0609 | – | 0.0562 |
| P228D | 0.103 | – | – | – | 0.0878 | – | 0.067 | 0.081 | 0.0619 | 0.0817 | 0.0906 | 0.112 | 0.0766 | – | – | – | – | – | – | – |
| P228C | 0.0904 | 0.0901 | – | – | 0.0962 | 0.0727 | – | 0.063 | – | 0.0819 | – | 0.105 | 0.0696 | 0.0607 | 0.0855 | 0.0797 | 0.0584 | 0.0551 | 0.054 | 0.0597 |
| F38D | – | 0.0493 | – | – | – | – | 0.0358 | – | 0.022 | – | – | 0.07 | – | – | – | – | – | – | – | – |
| K221H | 0.124 | 0.117 | 0.0897 | – | 0.0973 | 0.0683 | – | 0.0585 | 0.0667 | 0.0738 | 0.0729 | 0.101 | – | – | 0.0571 | – | 0.0554 | 0.0572 | 0.0641 | 0.0485 |
| K221M | 0.0834 | – | – | – | 0.0944 | 0.089 | 0.0656 | 0.0714 | 0.0642 | 0.0812 | – | 0.0957 | 0.0682 | 0.0542 | 0.0884 | – | 0.0595 | – | 0.0634 | – |
| K221C | 0.103 | 0.115 | 0.0649 | – | – | – | 0.0719 | 0.0609 | 0.0802 | 0.0901 | 0.065 | 0.101 | – | 0.0643 | 0.0589 | 0.0703 | 0.0562 | 0.0672 | 0.0612 | 0.0591 |
| W203L | 0.0558 | 0.0675 | 0.0632 | 0.0539 | 0.066 | 0.0702 | – | 0.0585 | – | 0.0618 | – | 0.0689 | 0.0596 | 0.061 | 0.0636 | – | 0.0578 | – | – | 0.0707 |
| W203K | 0.083 | 0.0619 | 0.0608 | – | – | – | 0.0472 | 0.0643 | 0.068 | 0.0673 | 0.0551 | 0.0676 | – | 0.061 | – | – | – | 0.0487 | – | 0.0625 |
| S201Y | 0.0829 | 0.0957 | – | 0.0603 | – | 0.0742 | 0.0667 | – | 0.0692 | 0.0719 | 0.0654 | 0.0951 | – | 0.0636 | 0.0608 | – | – | 0.0365 | 0.0762 | – |
| S201V | 0.128 | 0.132 | 0.0739 | – | 0.0955 | 0.0767 | 0.0381 | 0.0744 | 0.101 | 0.103 | – | 0.1 | 0.0632 | 0.0482 | – | 0.0771 | – | 0.0504 | 0.0574 | 0.0644 |
| L205R | 0.059 | 0.0606 | – | – | 0.0605 | – | – | – | 0.0534 | 0.0506 | – | 0.0634 | – | 0.0547 | – | – | 0.0625 | 0.0455 | 0.0596 | 0.058 |
| K46D | – | 0.0632 | 0.0447 | – | 0.0585 | 0.0545 | 0.0592 | – | 0.0549 | – | – | 0.0586 | 0.0623 | 0.0675 | 0.0563 | 0.0454 | 0.0531 | 0.0699 | – | – |
